60 compounds from PubChem BioAssay AID1159614 (National Center for Advancing Translational Sciences (NCATS), 2016) can be followed below.

About 65 (0.1%) of roughly 45,000 compounds were called active. The call rests on the fitted dose curve; in most records, active means well fitted activation curve with a large enough effect; inconclusive means small, poorly fitted or top-dose-only effect; inactive means no such curve, though single readings can be large or run the other way. The list shows a part of the results.

For the assay, the target named is Galactocerebrosidase (Homo sapiens) (UniProt P54803). The assay is described as follows: A Novel Cell-Based Assay to Identify Small Molecules for B -Galactocerebrosidase. Further: 0% is about no effect; nearly all actives have a fitted effect of over 65% in size. The following applies: 145M-Twi-hGALC-G270D cells (Twitcher mouse brain line with human GALC G270D), HMU-beta-Gal fluorescence, 48 h; series mostly up to 57.5 µM; activation: at the top concentration. In a few lines: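 Fluorogenic HMU-b-Gal hydrolysis (0.1 mM final, pH 5.2 citrate-phosphate with 1 mg/mL sodium taurocholate; carbonate stop buffer) measures mutant GALC activity after compound treatment of live 145M-Twi Twitcher brain cells stably carrying human GALC-G270D, with wild-type GALC line alongside; activation sought.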
Sequence of UniProt P54803 (P54803 whole entry, looked up): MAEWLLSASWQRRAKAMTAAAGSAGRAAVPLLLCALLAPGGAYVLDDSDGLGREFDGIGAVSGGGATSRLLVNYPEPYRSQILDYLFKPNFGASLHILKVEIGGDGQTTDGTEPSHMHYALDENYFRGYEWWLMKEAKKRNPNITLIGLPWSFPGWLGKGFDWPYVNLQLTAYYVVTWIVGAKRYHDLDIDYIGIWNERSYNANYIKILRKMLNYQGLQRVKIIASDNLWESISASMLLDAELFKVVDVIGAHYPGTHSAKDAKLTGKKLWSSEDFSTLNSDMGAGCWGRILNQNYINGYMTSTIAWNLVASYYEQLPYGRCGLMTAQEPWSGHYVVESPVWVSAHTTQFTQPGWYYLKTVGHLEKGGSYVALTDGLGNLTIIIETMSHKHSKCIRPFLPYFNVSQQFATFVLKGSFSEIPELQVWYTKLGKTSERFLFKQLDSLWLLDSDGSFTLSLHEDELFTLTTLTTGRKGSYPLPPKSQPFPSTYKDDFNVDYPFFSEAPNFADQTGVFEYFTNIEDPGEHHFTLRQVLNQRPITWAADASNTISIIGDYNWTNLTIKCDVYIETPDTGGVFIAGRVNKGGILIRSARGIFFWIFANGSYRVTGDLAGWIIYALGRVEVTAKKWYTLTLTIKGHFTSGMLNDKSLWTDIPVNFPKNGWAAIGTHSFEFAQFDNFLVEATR
As to `CC(C)CNC(=O)C1=CC(c2ccc3c(c2)OCO3)=NS(=O)(=O)N1C`, the “activation” value is inactive: -11.7%.
In the case of `COc1ccc(N2CCN(C(=O)Nc3cccc(C(F)(F)F)c3)CC2)cc1`, the “activation” value was inactive: -4.73%.
For the compound `Cc1ccc(Cn2c(CNC(=O)c3ccccc3Br)nc3cccnc32)cc1`, the “activation” value was inactive: -0.514%.
As to `CCc1ccccc1NC(=O)Cc1c(C(=O)O)[nH]c2ccc(Cl)cc12`, the “activation” value is inactive: -11.5%.
Regarding `Cc1ccc(-n2c(=O)c3oc4ccccc4c3n(CC(=O)Nc3ccccc3)c2=O)cc1C`, the “activation” value is inactive: -4.14%.
With `Cc1cc(-n2c(C)nc3ccccc3c2=O)ccc1NC(=O)c1cccc([N+](=O)[O-])c1` the figure was inactive: -21.3%.
With `Cc1cccc(NC(=O)CSc2cc(C)c3ccccc3n2)c1` the figure was inactive: -16.2%; with `O=C(NCCc1ccccc1)C(=O)Nc1cccc(Br)c1`, inactive: -9.96%; with `Oc1c(C(c2ccccc2)N2CCN(c3ccccc3)CC2)sc2nc(-c3ccco3)nn12` (stereo not given), inactive: -18.3%.
As to `Cc1ccc(C(=O)COC(=O)CCC(=O)Nc2ccc(Oc3ccccc3)cc2)cc1C`, the “activation” value was inactive: -9.43%.
With `CO/N=C(\C(=O)O)c1csc(NC(=O)CCl)n1` the figure was inactive: -11.5%.
In the case of `Cn1c(CCNC(=O)c2ccco2)nc2cc(NC(=O)COc3ccc(Cl)cc3)ccc21`, the “activation” value was inactive: -0.278%.
Next, `O=C(CSc1nc(=O)[nH]c2c1CCC2)NCc1ccccc1`: inactive: -0.19%.
With `COc1cccc(NC(=O)/C(C#N)=C\c2cn(Cc3ccc(Cl)cc3)c3ccccc23)c1`, the “activation” value is inactive: -24.1%.
As for `CCc1ccc(-c2nn(CC(=O)NC3CCCCC3)c3c2cnc2ccc(OC)cc23)cc1`, the “activation” value is inactive: -17.5%.
With `COc1ccc(NC(=O)CSC2=Nc3ccccc3C3=NC(CC(=O)NCc4ccc(F)cc4)C(=O)N23)cc1` (stereo not given), the “activation” value is inactive: -8.5%.
`COc1ccc(CC(=O)Nc2sc3c(c2C(=O)Nc2c(C)cccc2C)CCCCC3)cc1`: the “activation” value was inactive: -7.79%.
With `Cc1ccc(Cl)cc1NC(=O)C(=O)NCCc1sc(-c2ccc(F)cc2)nc1C` the figure was inactive: -8.9%.
For the compound `Cc1ccc(Cl)cc1N1CCN(C(=O)c2ccc(C)c(-n3c(C)nc4cccnc43)c2)CC1`, the “activation” value is inactive: -27.4%.
With `CCc1nc2ccc(C(=O)N3CCN(c4ccc(Cl)cc4)CC3)cc2nc1CC` the figure was inactive: -3%; with `CCCCc1ccc(C(=O)N/C(=C\c2ccc(C)cc2)C(=O)NC2CCCCC2)cc1`, inactive: -18.4%; with `COc1ccc(CNC(=O)Cn2c(=O)oc3cc(S(=O)(=O)N4CCCC4)ccc32)cc1`, inactive: -8.18%.
Consider `CCCOc1ccc(C(=O)Nc2c(C(=O)c3ccc(C)cc3)oc3ccccc23)cc1`, for which the “activation” value was inactive: 15.2%.
For `Cc1cccc(S(=O)(=O)c2cn(Cc3ccccc3)c3cc(N4CCCCC4C)c(F)cc3c2=O)c1` (stereo not given), the “activation” value was inactive: -21.4%.
For the compound `Cc1cccc(CNC(=O)c2ccc(Cn3c(=O)c4cccn4c4cccnc43)cc2)c1`, the “activation” value is inactive: -12.1%.
Next, `COc1cccc(Nc2nc(-c3ccccc3)c3cc(C)ccc3n2)c1`: inactive: -16.5%.
In the case of `O=C(CC1N=C2c3ccccc3N=C(SCc3ccccc3F)N2C1=O)NCc1cccs1` (stereo not given), the “activation” value is inactive: -14.1%.
Next, `Cc1ccc(NC(=O)C(Cc2ccccc2)NS(=O)(=O)c2cccc3nsnc23)c(C)c1` (stereo not given): inactive: -9.56%; `CCN(CCCNC(=O)c1cc2cc3ccc(OC)cc3nc2s1)c1ccccc1`: inactive: 9.62%; `CCCCNc1cc(C(=O)O)cc(S(N)(=O)=O)c1Oc1ccccc1`: inactive: -16.4%.
In the case of `COc1cc(C2CC(=O)Nc3c2c(=O)nc2c(C)cccn32)cc(OC)c1OC` (stereo not given), the “activation” value is inactive: -15.4%.
In the case of `CC1CCCCN1S(=O)(=O)c1ccc2c(c1)oc(=O)n2CC(=O)Nc1ccc(Cl)cc1` (stereo not given), the “activation” value is inactive: -8.82%.
For `CCS(=O)(=O)N1CCc2cc(C(=O)Nc3cc(Cl)ccc3C)ccc21`, the “activation” value was inactive: -18.6%.
As for `Cc1nn2c(-c3cccc(NC(=O)c4ccc(Cl)cc4)c3)nnc2c2ccccc12`, the “activation” value is inactive: 4.33%.
As to `CCN1CCC(N(Cc2ccc3c(c2)OCO3)C(=O)Nc2ccc(Br)c(C)c2)CC1`, the “activation” value was inactive: -4.72%.
With `Cc1ccc(N2CCN(C(=O)c3cn(C)c4ccc(S(=O)(=O)N(C)C5CCCCC5)cc4c3=O)CC2C)cc1` (stereo not given) the figure was inactive: -9.78%; with `CCCCOCc1cc(CN2CCN(c3cccc(Cl)c3)CC2)c(O)c2ncccc12`, inactive: -8.8%.
As for `COc1ccc(CCNC(=O)CCS(=O)(=O)c2ccc3c(c2)oc(=O)n3C)cc1OC`, the “activation” value was inactive: -22.1%.
For the compound `CCn1c(=O)n(CC)c2cc(N3CCCCC3)c(NC(=O)Nc3cc(Cl)ccc3OC)cc21`, the “activation” value was inactive: -11.7%.
With `CCOC(=O)c1c(C)[nH]c(CCC(=O)Nc2ccccc2C(=O)OC)c1C` the figure was inactive: -11.2%.
As to `CC(C)C(=O)Nc1ccc2nc(SCCOc3ccccc3)sc2c1`, the “activation” value is inactive: -16.8%.
Regarding `COc1ccc(-n2c(-c3ccco3)nc3c(cnn3-c3ccc(C)cc3)c2=O)cc1`, the “activation” value is inactive: -8.23%.
Next, `COCCCNC(=O)CCc1c(C)nc2cc(-c3ccc(Cl)cc3)nn2c1C`: inactive: -22.1%; `CC(C)Cn1c(/C=C/c2ccc(F)cc2)nc2ccccc21`: inactive: -3.54%; `O=C(c1cccs1)N1CCCc2cc(NS(=O)(=O)c3ccc(F)cc3)ccc21`: inactive: -35.8%.
Next, `COc1ccccc1NC(=O)C1=C(C)Nc2nc(SCc3cc(C)ccc3C)nn2C1c1ccccc1` (stereo not given): inactive: -13.3%; `CCOc1ccc(C(=O)N2CCN(Cc3cc(=O)n4nc(-c5ccccc5Cl)sc4n3)CC2)cc1`: inactive: 3.01%.
Take `CCOC(=O)[C@H](CCc1ccccc1)N[C@@H](C)C(=O)N(CC(=O)O)C1Cc2ccccc2C1`: the “activation” value was inactive: -16.5%.
In the case of `O=C(Nc1ccc2nn(-c3ccccc3)nc2c1)c1ccc(-c2cccc(Cl)c2)o1`, the “activation” value was inactive: -13%.
With `CCOc1ccc(NS(=O)(=O)c2ccc(NC(=O)N3CCCC3)cc2)cc1` the figure was inactive: -13.5%.
With `O=C(CSc1nnc(CNC(=O)c2c(F)cccc2Cl)o1)Nc1cccc(F)c1` the figure was inactive: -9.32%; with `CCn1c(C)c(C)c2cc(C(=O)NCCc3ccc(C)cc3)ccc21`, inactive: -6.36%.
Next, `O=C(c1ccc2c(=O)n(CCc3ccccc3)c(=O)[nH]c2c1)N1CCN(c2ccc(Cl)cc2)CC1`: inactive: 0.179%.
Consider `CC[C@H](C)C(=O)O[C@H]1C[C@@H](C)C=C2C=C[C@H](C)[C@H](CC[C@@H]3C[C@@H](O)CC(=O)O3)[C@H]21`, for which the “activation” value is inactive: -5.57%.
With `Cc1ccc(C)c(NC2=C(c3ccc(C(F)(F)F)cc3)C(=O)c3ccccc32)c1` the figure was inactive: -19.5%.
Regarding `COc1ccccc1C(=O)NCCc1csc(-c2ccc(C(F)(F)F)cc2)n1`, the “activation” value was inactive: -12.1%.
Regarding `COc1cc(NC(=O)Cn2c(=O)n(CC3CCCO3)c(=O)c3cc(OC)c(OC)cc32)cc(OC)c1` (stereo not given), the “activation” value was inactive: -6.14%.
On to `CCc1ccc(C2CC(=O)N(c3cccc(C(F)(F)F)c3)C3=C2C(=O)OC3)cc1` (stereo not given), for which the “activation” value is inactive: 0.314%.
Next, `CCOCCc1nn2c(=O)cc(COC(=O)c3ccc(NC(=O)c4ccc(F)cc4)cc3)nc2s1`: inactive: 5.69%; `Cc1cccc(Cn2nnc3c(=O)[nH]c(C4CCCN(C(=O)c5ccc(C(C)(C)C)cc5)C4)nc32)c1` (stereo not given): inactive: -16.7%.
